According to the supplement of paper PMC3334620:
Whole data set: some 33,000 sequences, median “E-score (-0.5 to 0.5)” near -0.016, cut for the highest 2% near 0.32. The list shows a part of the results.

Target: T1, Stp1 (UniProt B3LFK1)
T1 sequence: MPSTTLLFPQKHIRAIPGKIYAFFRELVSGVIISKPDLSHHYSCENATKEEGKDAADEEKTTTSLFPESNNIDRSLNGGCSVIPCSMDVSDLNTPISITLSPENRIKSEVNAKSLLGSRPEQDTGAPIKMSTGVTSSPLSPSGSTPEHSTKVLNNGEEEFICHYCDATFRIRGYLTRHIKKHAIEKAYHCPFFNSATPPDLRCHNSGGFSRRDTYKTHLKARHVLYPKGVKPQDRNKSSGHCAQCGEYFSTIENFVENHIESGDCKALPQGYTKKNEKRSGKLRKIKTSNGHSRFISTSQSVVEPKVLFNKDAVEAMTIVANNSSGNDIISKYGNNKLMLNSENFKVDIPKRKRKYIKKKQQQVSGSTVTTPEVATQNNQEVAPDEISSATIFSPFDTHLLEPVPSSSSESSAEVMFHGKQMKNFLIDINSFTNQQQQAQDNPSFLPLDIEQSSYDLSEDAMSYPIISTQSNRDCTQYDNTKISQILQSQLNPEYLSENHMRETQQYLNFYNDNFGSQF
Assay: PBM E-score (8-mer binding enrichment) (E-score (-0.5 to 0.5)); higher = stronger / more preferred TF binding; most listed sequences are background and not binding sites
Details: protein concentration: 200 nM; construct: GST-full length
Procedure: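 Universal 'all 10-mer' protein binding microarrays (Agilent AMADID 015681) probed with GST-tagged S. cerevisiae TFs (full-length or DBD) made by in vitro transcription/translation (PURExpress), about 100-200 nM. Bound TF was detected with fluorescent anti-GST. Each ungapped 8-mer (which stands for itself and its reverse complement) is scored by the PBM enrichment score (E-score), a modified Wilcoxon-Mann-Whitney statistic from -0.5 to +0.5, computed with the Universal PBM Analysis Suite. Scale: above 0.35 generally sequence-specific binding.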

| Sequence | PBM E-score |
| --- | --- |
| TCCACGCA | 0.0184 |
| ACGTGACG | -0.0358 |
| CTAGCAAC | -0.0374 |
| GGACGCAC | -0.105 |
| GTAGAATA | 0.204 |
| GAGTCCGC | -0.0713 |
| TAGATGGA | -0.0885 |
| CACGGAAA | 0.27 |
| ATCACAAT | -0.0368 |
| ATTCCGCG | 0.103 |
| ACTACCGA | -0.163 |
| CTGCCTGA | -0.0731 |
| AATATGAA | 0.0785 |
| AAGCCAGA | -0.0844 |
| AACCTAAT | -0.0832 |
| CAGCTCGG | -0.179 |
| ACACGAAT | 0.117 |
| GTATCGGA | -0.0517 |
| AAACGGTA | 0.166 |
| CTCTCTGC | -0.125 |
| ACCCACGT | -0.0313 |
| CACCTTAG | -0.229 |

| Sequence | PBM E-score |
| --- | --- |
| ATCGTCAA | 0.0655 |
| ATCGTTGA | -0.0862 |
| AGCATTAG | -0.147 |
| ATGACGAG | -0.0436 |
| ATAAATGG | 0.0779 |
| CGGGATTA | 0.0374 |
| ACGGACTC | -0.0205 |
| GCAACCCC | -0.222 |
| ACTGAGAA | 0.0362 |
| GCTCTTTA | -0.0143 |
| ACATTTAT | -0.013 |
| AAGATTGA | 0.0691 |
| GAAATGTC | -0.143 |
| AGTAAATC | -0.00855 |
| GGATAAGA | -0.0166 |
| AACACGCC | 0.2 |
| GAATAGTA | 0.0764 |
| CGTATCCA | -0.195 |
| CAAACCCA | -0.138 |
| GAGCGACC | -0.159 |
| CTAAGAAG | -0.0366 |
| CACTCCCG | -0.188 |

| Sequence | PBM E-score |
| --- | --- |
| CGGACAAG | 0.117 |
| CCACCGAA | 0.0847 |
| ATTCATGA | 0.123 |
| ATCAAAGG | 0.00439 |
| ATGAGACC | -0.148 |
| CAAGGGCA | -0.00665 |
| ACGCCATC | 0.142 |
| ACATGGTA | 0.0943 |
| AATTATCC | -0.00926 |
| TACATTAA | 0.2 |
| AGATTTAG | 0.136 |
| CTCTTGTC | 0.0264 |
| GCGGGCCA | -0.167 |
| ATGGCCAA | -0.182 |
| GTGTAATA | 0.0143 |
| CTCGTTGC | 0.188 |
| CCATTATA | 0.101 |
| ATGGTTTA | 0.0423 |
| TGTGTTAA | 0.0919 |
| ACCCGAGG | -0.0899 |
| AGCGAGGG | -0.245 |
| AGTGCGAC | -0.0365 |

| Sequence | PBM E-score |
| --- | --- |
| CGAAAGAA | -0.0748 |
| TACTGGGA | -0.136 |
| AACAGAAA | 0.113 |
| ACGATGGC | -0.00112 |
| CGTCTTGA | 0.109 |
| CTATGACA | -0.0378 |
| GCAGGAAC | -0.139 |
| CATGCCGG | 0.186 |
| ATACATGC | 0.0364 |
| CGCGTTCA | 0.22 |
| GTACAACA | 0.203 |
| GTACACAA | 0.0963 |
| ATCGCGCG | 0.235 |
| ACCGAAGC | -0.104 |
| ACGAAGGC | -0.134 |
| ACGCCTCT | 0.0123 |
| CGCCGATA | 0.245 |
| CGAGCCTC | -0.073 |
| CCGCAGGA | 0.0329 |
| GCCAGCCC | -0.231 |
